One protein from publication PMC270013 (BMC Biochemistry, 2003) can be followed below.

Series [1] concerns the molecule itself. The experiment in a line: breakpoint of thermal midpoint.
Series [2] concerns the molecule itself. In words: cross-linking.

B1: Val100Gly cpn10 (human mitochondrial cpn10 with valine-100 replaced by glycine) (natural protein)
chain: not shown
By Kd is commonly meant the free concentration of one partner at which half of the binding sites on the other are occupied at equilibrium, for simple one-to-one binding. The stoichiometry N is a count of units in the complex or per binding partner. Take B1: the dissociation constant Kd in series [1] is ~5 µM. For the same protein, the “stoichiometry N” value in series [2] came to 7.
